Tested on: Huh7.5 cells

**Q.** Which cytotoxic effect does the source give for `NC12CC3CC(CC(C3)C1)C2` [amantadine] here?
**A.** Its cytotoxic effect is “no significant cytotoxic effect”.

**Q.** For `NC(=O)c1ncn([C@@H]2O[C@H](CO)[C@@H](O)[C@H]2O)n1` [ribavirin], which cytotoxic effect is on record?
**A.** Its cytotoxic effect is “no significant cytotoxic effect”.

From US8563706B2, “Efficient cell culture system for hepatitis C virus genotype 1A and 1B” (priority 2007, dated 2013)
